Measured values published in PubChem BioAssay AID1458 (National Center for Advancing Translational Sciences (NCATS), 2008).
Out of some 210,000 compounds screened, about 5,900 (2.8%) were called active. The inconclusive results got no clear call from the source; some entries with a clear call stand among them for comparison. Calls follow the shape of the dose curve; as a rule, active = well fitted activation curve with a large enough effect; inconclusive = small, poorly fitted or top-dose-only effect; inactive = no such curve, though single readings can be large or run the other way. Potencies of inconclusive entries are doubtful fits and often do not repeat.

Assay: qHTS Assay for Enhancers of SMN2 Splice Variant Expression; also: nearly all actives have a fitted effect of over 55% in size; as to activity change, positive = activation: % of control where 0% means no effect
Details: HEK293 SMN2-luciferase splicing reporter, luminescence, 30-36 h; activity change, positive = activation: at 46.1 µM (top of the series)
Method in brief: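 qHTS luciferase splicing reporter: luminescence rises when SMN2 exon 7 is included in transfected HEK293 cells. Compound exposure lasted 30-36 h at 37C, with 4.5 mM final sodium butyrate as control, followed by a ONE-Glo read.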
Potency is read from the fitted curve at half-maximal effect; tags tell the direction and shape of the fitted curve.

SMILES | Potency | activity change, positive = activation
C=CCNC(=O)CCCCC(=O)NCC=C | inconclusive: 3.16 µM [activator, single point] | 
O=S(=O)(c1ccc(Cl)cc1)N1CCC(N2CCOCC2)CC1 | inconclusive: 0.282 µM [activator, full curve, poor fit] | 
c1ccc(CSc2nnc3ccc(-c4cccs4)nn23)nc1 | inconclusive: 22.4 µM [activator, single point] | 
O=C(NCc1ccccc1)c1ccc(C2SCC(=O)N2Cc2ccccc2)cc1 (stereo unspecified) | inactive | 
CCOC(=O)c1cc2c3ccccc3n(CC)c2nc1N | inactive | 
CCOc1ccc2nc(N3CCCC(C(=O)Nc4cc(Cl)c(OC)cc4OC)C3)sc2c1 (stereo unspecified) | inconclusive: 17.8 µM [activator, partial curve] | 
COC(=O)c1ccc(Oc2nc(Nc3ccc(F)cc3)nc(N3CCCC3)n2)cc1 | inconclusive: 0.0316 µM [activator, full curve, poor fit] | 
COc1ccccc1N1CCN(Cc2cccs2)CC1 | inconclusive: 0.0355 µM [activator, full curve, poor fit] | 
C=CCN(CC=C)S(=O)(=O)c1ccc2nc(NC(=O)C(C)C)sc2c1 | inactive | 
Cc1cc(=O)oc2cc(NC(=O)c3cc([N+](=O)[O-])ccc3N3CCOCC3)ccc12 |  | inconclusive: 41.7% [activator]
Cc1ccccc1Nc1nc(-c2ccccc2)c(C(=O)Nc2cccnc2)s1 | inactive | 
N#Cc1cccc(-c2nc(N3CCNCC3)c3ccccc3n2)c1 | inactive | 
Cc1cc(C(=O)COC(=O)c2ccc(Br)o2)c(C)n1Cc1ccco1 | inactive | 
CN(C)C=C1C(=O)c2ccccc2C1=O | inconclusive: 10 µM [activator, partial curve] | 
CCOc1ccccc1NC(=O)CCC(=O)Nc1ccccc1OCC | inactive | 
O=C1/C(=C\Nc2ccc(Cl)cc2)CCN1c1ncccn1 | active: 20 µM | 
COCCn1c(C)cc(C(=O)CSc2nnc3ccccn23)c1C | inconclusive: 7.94 µM [activator, partial curve] | 
CCCCOc1ccc(C(=O)N2CCCC2)cc1 | active: 11.2 µM | 
O=C(NCCN1CCOCC1)c1cccc(S(=O)(=O)N2CCCCCC2)c1 | inconclusive: 5.01 µM [activator, partial curve] | 
Cc1ccc(CSc2nnc(-c3ccc4c(c3)OCO4)o2)cc1 | inactive | 
COc1cc(/C=N/NC(=O)C(N)=O)ccc1OC(=O)c1cccs1 | inactive | 
CCN(CC)S(=O)(=O)c1ccc(NC(=O)Cn2cnc3ccccc3c2=O)cc1 | inconclusive: 1.41 µM [activator, partial curve, poor fit] | 
COc1ccc(N(CC(=O)NCc2cccnc2)S(=O)(=O)c2c(C)nn(C)c2C)cc1 | inconclusive: 31.6 µM [activator, single point] | 
CCOc1ccc(NC(=O)CC2C(=O)N(c3ccc(C)cc3)C(=O)N2CCC2=CCCCC2)cc1 (stereo unspecified) | inactive | 
Cc1nnc2n1N=CC=C(c1ccccc1)S2 | inconclusive: 0.794 µM [activator, single point] | 
Nc1nonc1-c1nc2ccccc2n1Cc1cccc(Cl)c1 | inconclusive: 35.5 µM [activator, single point] | 

SMILES | Potency | activity change, positive = activation
Nc1cc(Cl)nc(N/N=C/c2ccccc2[N+](=O)[O-])n1 | inconclusive: 6.31 µM [activator, partial curve, poor fit] | 
Cc1ccc(CN2CCSc3ccc(C(=O)NCC(C)c4ccccc4)cc32)cc1 (stereo unspecified) | inconclusive: 11.2 µM [activator, single point] | 
COc1ccc(CN2CC(=O)N(c3ccc(C)c(C)c3)C2=S)cc1OC | inactive | 
CCn1c2ccccc2c2nnc(SCC(=O)NC3CCS(=O)(=O)C3)nc21 (stereo unspecified) | inconclusive: 0.0891 µM [activator, full curve, poor fit] | 
O=C(Nc1ccc2c(c1)OCO2)c1cnccn1 | active: 11.2 µM | 
Cc1ccc(-c2nc3ncccc3o2)cc1NC(=O)Cc1ccc(Cl)cc1 | inconclusive: 35.5 µM [activator, single point] | 
NC(=O)c1c(NC(=O)c2cnccn2)sc2c1CCCC2 | inconclusive: 11.2 µM [activator, partial curve] | 
CC(=O)Nc1ccccc1NC(=O)CN(C)S(=O)(=O)c1ccc(C)cc1 | inconclusive: 3.98 µM [activator, full curve, poor fit] | 
Cc1ccc(NC(=O)C(C)n2nnc3sc4c(c3c2=O)CCCC4)cc1Cl (stereo unspecified) | inactive | 
O=C(COc1ccc(S(=O)(=O)NC2CCCCC2)cc1Cl)NCc1ccc2c(c1)OCO2 | inconclusive: 0.112 µM [activator, full curve] | 
COc1cccc(C(=O)NCC(=O)N/N=C(C)\C=C\c2ccccc2)c1 | inactive | 
Cc1cc(C)nc(N/N=C/c2ccccc2)n1 | inactive | 
CCOC(=O)c1ccc(Cn2cnc3ccccc3c2=O)cc1 | inconclusive: 0.0045 µM [activator, full curve, poor fit] | 
Cc1ccc(C)c(N2CCN(C(=O)c3ccc4c(c3)N(Cc3ccc(F)cc3)C(=O)c3ccccc3S4=O)CC2)c1 (stereo unspecified) | inactive | 
COc1ccccc1-c1noc(CCC(=O)Nc2ccc(C)cc2C)n1 | inactive | 
Cc1c(Cl)cccc1NC(=O)CN1CCC(C(O)(c2ccccc2)c2ccccc2)CC1 | inconclusive: 35.5 µM [activator, single point] | 
CCOC(=O)Cc1c(Sc2ccccc2)c2ccccc2n1C | inconclusive: 35.5 µM [activator, single point] | 
CCCOc1ccc(OCCSc2nnc(N)s2)cc1 | inconclusive: 5.62 µM [activator, single point] | 
O=[N+]([O-])c1ccc2nc(-c3ccccc3[N+](=O)[O-])[nH]c2c1 | inactive | 
COc1ccc2nc(NC(=O)c3ccoc3C)sc2c1 | active: 2 µM | 
Cc1ccc(C(=O)CNc2ccccc2C)cc1 | inactive | 
C=CC[n+]1c(C)csc1Nc1ccc(C(=O)O)cc1 | inactive | 
CCCCOc1nnc(-c2ccc(OCC)cc2)c2ccccc12 | inactive | 
CCOC(=O)N1CCN(C(=O)c2ccc3c(c2)N(Cc2cc(C)ccc2C)C(=O)c2ccccc2S3=O)CC1 (stereo unspecified) | inconclusive: 31.6 µM [activator, single point] | 
Cc1cc(-c2cccnc2)c(C#N)c(SCC#N)n1 | inconclusive: 6.31 µM [activator, single point] | 
CCCn1c(SCC(=O)NC(=O)NCc2ccco2)n[nH]c1=O | inconclusive: 0.708 µM [activator, full curve] | 

SMILES | Potency | activity change, positive = activation
Cc1ccc(NC(=O)CCCn2c3ccccc3c(=O)c3cc(C)ccc32)c(Br)c1 | inconclusive: 5.62 µM [activator, single point] | 
Cc1cc(C(=O)CN2C(=O)CCC2=O)c(C)n1Cc1ccccc1 | inactive | 
Cc1ccc(OCC(=O)NNC(=O)c2ccoc2C)c(Br)c1 | inconclusive: 5.62 µM [activator, single point] | 
O=C(NCCc1ccc(F)cc1)c1n[nH]c2ccccc12 | inconclusive: 11.2 µM [activator, partial curve] | 
COc1cccc2cc(-c3ccccc3)c(=O)oc12 | active: 11.2 µM | 
Cc1ccc(C)c(N(CC(=O)NCCSCc2ccco2)S(C)(=O)=O)c1 | inactive | 
Cc1cnc(-c2nnc(N(C)C(=O)C3CCOC3)s2)cn1 (stereo unspecified) | inconclusive: 0.0063 µM [activator, full curve, poor fit] | 
CC(C)OP(=O)(c1ccc(N(C)C)cc1)C(O)c1c(Cl)cccc1Cl (stereo unspecified) | inconclusive: 0.0316 µM [activator, full curve, poor fit] | 
Cc1ccc(CSCC(=O)NN=C2CCN(C)CC2)cc1 | inconclusive: 35.5 µM [activator, single point] | 
CCCn1nc(NC(=O)c2ccccn2)c2cc3cc(C)ccc3nc21 | inconclusive: 20 µM [activator, single point] | 
Cc1ccccc1OCc1nc(-c2ccc(NC(=O)c3ccco3)cc2)no1 | active: 7.08 µM | 
COc1cc2nc(N3CCN(C(=O)C4CCCO4)CC3)nc(N)c2cc1OC (stereo unspecified) | inconclusive: 3.98 µM [activator, full curve, poor fit] | 
CCCSc1nnc(Sc2nnnn2-c2ccccc2)s1 | inconclusive: 2 µM [activator, partial curve] | 
CC1CCC(NC(=O)N(CCCl)N=O)CC1 (stereo unspecified) | inconclusive: 12.6 µM [activator, single point] | 
COc1ccc(C(=O)Nc2nc3c(s2)CCCC3)cc1S(=O)(=O)N1CCCc2ccccc21 | inconclusive: 5.62 µM [activator, single point] | 
COc1ccc(/C=N/NC(=O)c2cccc(NC(=O)c3ccc(Cl)cc3)c2)c(OC)c1 | inconclusive: 8.91 µM [activator, partial curve] | 
CCSc1nnc2c(n1)OC(c1ccc(C)cc1)N(C(C)=O)c1ccccc1-2 (stereo unspecified) | inactive | 
COc1ccc(N=Cc2c(O)[nH]c3ccccc23)cc1 | active: 12.6 µM | 
Cc1ccc(-c2nn(C)c(=O)c3ccccc23)cc1S(=O)(=O)N1CCOCC1 | inconclusive: 10 µM [activator, single point] | 
Cc1ccccc1C(=O)NCCc1nnc(SCC(=O)Nc2nc(-c3ccccc3)cs2)n1C | inactive | 
COc1ccc2c(c1)OC[C@H]1c3cc4c(cc3O[C@@H]21)OCO4 | inactive | 
Cc1ccc(CN2CCSc3ccc(C(=O)NCCc4ccccc4)cc32)cc1 | active: 12.6 µM | 
O=C(Nc1nnc(SCc2ccc(F)cc2)s1)c1ccc2ncsc2c1 | active: 12.6 µM | 
COc1ccc(/C=N/Nc2ccccn2)c(OC)c1OC | inconclusive: 22.4 µM [activator, partial curve] | 
